Results: the supplement of paper PMC8728848
The list shows a part of the results.

Assays:
Experiment in all cases: glycan array binding signal (z-score within array); higher = stronger binding
Details in all cases: glycan notation: IUPAC condensed, linker removed
Gal(a1-3)Gal = molecular target: Gal(a1-3)Gal
Outline: (§1)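 The binding signal is a Z-score computed within each array. Data were drawn from 3228 arrays in the Consortium for Functional Glycomics database, restricted to those with a known protein sequence. Scores were averaged over arrays of the same protein sequence at different concentrations or buffers, and over linkers, and negative values can be taken as non-binding.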

Gal(a1-3)Gal(b1-3)GlcNAc = molecular target: Gal(a1-3)Gal(b1-3)GlcNAc
Outline: as §1

[1] = molecular target: Gal(a1-3)Gal(b1-3)GlcNAc(b1-2)Man
Outline: as §1

[2] = molecular target: Gal(a1-3)Gal(b1-3)GlcNAc(b1-2)Man(a1-3)[Gal(a1-3)Gal(b1-3)GlcNAc(b1-2)Man(a1-6)]Man(b1-4)GlcNAc(b1-4)GlcNAc
Outline: as §1

[3] = molecular target: Gal(a1-3)Gal(b1-3)GlcNAc(b1-3)GalNAc
Outline: as §1

[4] = molecular target: Gal(a1-3)Gal(b1-3)GlcNAc(b1-6)GalNAc
Outline: as §1

[5] = molecular target: Gal(a1-3)Gal(b1-3)[Fuc(a1-4)]GlcNAc(b1-2)Man(a1-3)[Gal(a1-3)Gal(b1-3)[Fuc(a1-4)]GlcNAc(b1-2)Man(a1-6)]Man(b1-4)GlcNAc(b1-4)GlcNAc
Outline: as §1

Gal(a1-3)Gal(b1-4)Glc = molecular target: Gal(a1-3)Gal(b1-4)Glc
Outline: as §1

Gal(a1-3)Gal(b1-4)GlcNAc = molecular target: Gal(a1-3)Gal(b1-4)GlcNAc
Outline: as §1

[6] = molecular target: Gal(a1-3)Gal(b1-4)GlcNAc(b1-2)Man
Outline: as §1

[7] = molecular target: Gal(a1-3)Gal(b1-4)GlcNAc(b1-2)Man(a1-3)[Gal(a1-3)Gal(b1-4)GlcNAc(b1-2)Man(a1-6)]Man(b1-4)GlcNAc(b1-4)GlcNAc
Outline: as §1

[8] = molecular target: Gal(a1-3)Gal(b1-4)GlcNAc(b1-3)GalNAc
Outline: as §1

[9] = molecular target: Gal(a1-3)Gal(b1-4)GlcNAc(b1-6)GalNAc
Outline: as §1

[10] = molecular target: Gal(a1-3)Gal(b1-4)[Fuc(a1-3)]GlcNAc
Outline: as §1

[11] = molecular target: Gal(a1-3)Gal(b1-4)[Fuc(a1-3)]GlcNAc(b1-2)Man(a1-3)[Gal(a1-3)Gal(b1-4)[Fuc(a1-3)]GlcNAc(b1-2)Man(a1-6)]Man(b1-4)GlcNAc(b1-4)GlcNAc
Outline: as §1

Gal(a1-3)GalNAc = molecular target: Gal(a1-3)GalNAc
Outline: as §1

[12] = molecular target: Gal(a1-3)[Gal(a1-4)]Gal(b1-4)GlcNAc
Outline: as §1

[13] = molecular target: Gal(a1-4)Gal(b1-3)GlcNAc(b1-2)Man(a1-3)[Gal(a1-4)Gal(b1-3)GlcNAc(b1-2)Man(a1-6)]Man(b1-4)GlcNAc(b1-4)GlcNAc
Outline: as §1

Gal(a1-4)Gal(b1-4)Glc = molecular target: Gal(a1-4)Gal(b1-4)Glc
Outline: as §1

Gal(a1-4)Gal(b1-4)GlcNAc = molecular target: Gal(a1-4)Gal(b1-4)GlcNAc
Outline: as §1

[14] = molecular target: Gal(a1-4)Gal(b1-4)GlcNAc(b1-2)Man(a1-3)[Gal(a1-4)Gal(b1-4)GlcNAc(b1-2)Man(a1-6)]Man(b1-4)GlcNAc(b1-4)GlcNAc
Outline: as §1

[15] = molecular target: Gal(a1-4)Gal(b1-4)GlcNAc(b1-3)Gal(b1-4)Glc
Outline: as §1

Gal(a1-4)GlcNAc = molecular target: Gal(a1-4)GlcNAc
Outline: as §1

Gal(a1-6)Glc = molecular target: Gal(a1-6)Glc
Outline: as §1

Gal(b1-2)Gal = molecular target: Gal(b1-2)Gal
Outline: as §1

Gal(b1-3)Gal = molecular target: Gal(b1-3)Gal
Outline: as §1

Gal(b1-3)Gal(b1-4)GlcNAc = molecular target: Gal(b1-3)Gal(b1-4)GlcNAc
Outline: as §1

Gal(b1-3)GalNAc = molecular target: Gal(b1-3)GalNAc
Outline: as §1

[16] = molecular target: Gal(b1-3)GalNAc(a1-3)[Fuc(a1-2)]Gal(b1-4)Glc
Outline: as §1

[17] = molecular target: Gal(b1-3)GalNAc(a1-3)[Fuc(a1-2)]Gal(b1-4)GlcNAc
Outline: as §1

Gal(b1-3)GalNAc(b1-3)Gal = molecular target: Gal(b1-3)GalNAc(b1-3)Gal
Outline: as §1

[18] = molecular target: Gal(b1-3)GalNAc(b1-3)Gal(a1-4)Gal(b1-4)Glc
Outline: as §1

[19] = molecular target: Gal(b1-3)GalNAc(b1-4)Gal(b1-4)Glc
Outline: as §1

[20] = molecular target: Gal(b1-3)GalNAc(b1-4)[Neu5Ac(a2-3)]Gal(b1-4)Glc
Outline: as §1

Gal(b1-3)GlcNAc = molecular target: Gal(b1-3)GlcNAc
Outline: as §1

[21] = molecular target: Gal(b1-3)GlcNAc(a1-3)Gal(b1-4)GlcNAc
Outline: as §1

[22] = molecular target: Gal(b1-3)GlcNAc(a1-6)Gal(b1-4)GlcNAc
Outline: as §1

Gal(b1-3)GlcNAc(b1-2)Man = molecular target: Gal(b1-3)GlcNAc(b1-2)Man
Outline: as §1

B1: Gal 8 (Mus musculus), Q9JL15 (protein)
chain: MGGSHHHHHHGMASMLSLNNLQNIIYNPIIPYVGTITEQLKPGSLIVIRGHVPKDSERFQVDFQLGNSLKPRADVAFHFNPRFKRSSCIVCNTLTQEKWGWEEITYDMPFRKEKSFEIVFMVLKNKFQVAVNGRHVLLYAHRISPEQIDTVGIYGKVNIHSIGFRFSSASALPHTLGDLQSMETSALGLTQINRENIQKPGKLQLSLPFEARLNASMGPGRTVVIKGEVNTNARSFNVDLVAGKTRDIALHLNPRLNVKAFVRNSFLQDAWGEEERNITCFPFSSGMYFEMIIYCDVREFKVAINGVHSLEYKHRFKDLSSIDTLSVDGDIRLLDVRSW
glycan array binding signal (z-score) (Gal(a1-3)Gal): -0.521
glycan array binding signal (z-score) (Gal(a1-3)Gal(b1-3)GlcNAc): -0.09
glycan array binding signal (z-score) [1]: 0.264
glycan array binding signal (z-score) [2]: -0.276
glycan array binding signal (z-score) [3]: 0.221
glycan array binding signal (z-score) [4]: 0.273
glycan array binding signal (z-score) [5]: -0.204
glycan array binding signal (z-score) (Gal(a1-3)Gal(b1-4)Glc): 0.2
glycan array binding signal (z-score) (Gal(a1-3)Gal(b1-4)GlcNAc): 0.325
glycan array binding signal (z-score) [6]: 0.378
glycan array binding signal (z-score) [7]: 2.1
glycan array binding signal (z-score) [8]: 0.166
glycan array binding signal (z-score) [9]: 0.271
glycan array binding signal (z-score) [10]: -0.546
glycan array binding signal (z-score) [11]: -0.406
glycan array binding signal (z-score) (Gal(a1-3)GalNAc): -0.533
glycan array binding signal (z-score) [12]: -0.533
glycan array binding signal (z-score) [13]: -0.534
glycan array binding signal (z-score) (Gal(a1-4)Gal(b1-4)Glc): -0.504
glycan array binding signal (z-score) (Gal(a1-4)Gal(b1-4)GlcNAc): -0.457
glycan array binding signal (z-score) [14]: -0.532
glycan array binding signal (z-score) [15]: 0.175
glycan array binding signal (z-score) (Gal(a1-4)GlcNAc): -0.536
glycan array binding signal (z-score) (Gal(a1-6)Glc): -0.531
glycan array binding signal (z-score) (Gal(b1-2)Gal): -0.521
glycan array binding signal (z-score) (Gal(b1-3)Gal): -0.231
glycan array binding signal (z-score) (Gal(b1-3)Gal(b1-4)GlcNAc): 0.252
glycan array binding signal (z-score) (Gal(b1-3)GalNAc): -0.248
glycan array binding signal (z-score) [16]: 0.954
glycan array binding signal (z-score) [17]: 2.62
glycan array binding signal (z-score) (Gal(b1-3)GalNAc(b1-3)Gal): 0.494
glycan array binding signal (z-score) [18]: 0.125
glycan array binding signal (z-score) [19]: 0.461
glycan array binding signal (z-score) [20]: 0.288
glycan array binding signal (z-score) (Gal(b1-3)GlcNAc): -0.182
glycan array binding signal (z-score) [21]: 0.264
glycan array binding signal (z-score) [22]: -0.17
glycan array binding signal (z-score) (Gal(b1-3)GlcNAc(b1-2)Man): -0.065
